The results in this text go back to PubChem BioAssay AID488969 (Vanderbilt High Throughput Screening Facility, 2010).

SMILES strings stand for the structures. Whole data set: some 110,000 compounds, median “z-score” near -0.1, cut for the highest 2% near 2. Some of the results follow. Active and inactive are the calls of the source.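 Rule for the calls: active = z-score in the third read window above 3 or below -3; inactive = the rest.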

In this assay the target is Metabotropic glutamate receptor 8 (Rattus norvegicus) (UniProt P70579). Nature of the assay: mGluR8 Gi/Go-coupled signaling modulation – cell-based, rat, thallium flux, HTS, primary screen (AID 488969). The note with it: HEK293 rat mGluR8, GIRK (G protein-gated inwardly rectifying potassium channel) thallium flux, FluoZin2; at 10 µM; stronger effect = higher value; submaximal glutamate (EC20) added with thallium.
Chain of UniProt P70579 (P70579 whole entry, looked up): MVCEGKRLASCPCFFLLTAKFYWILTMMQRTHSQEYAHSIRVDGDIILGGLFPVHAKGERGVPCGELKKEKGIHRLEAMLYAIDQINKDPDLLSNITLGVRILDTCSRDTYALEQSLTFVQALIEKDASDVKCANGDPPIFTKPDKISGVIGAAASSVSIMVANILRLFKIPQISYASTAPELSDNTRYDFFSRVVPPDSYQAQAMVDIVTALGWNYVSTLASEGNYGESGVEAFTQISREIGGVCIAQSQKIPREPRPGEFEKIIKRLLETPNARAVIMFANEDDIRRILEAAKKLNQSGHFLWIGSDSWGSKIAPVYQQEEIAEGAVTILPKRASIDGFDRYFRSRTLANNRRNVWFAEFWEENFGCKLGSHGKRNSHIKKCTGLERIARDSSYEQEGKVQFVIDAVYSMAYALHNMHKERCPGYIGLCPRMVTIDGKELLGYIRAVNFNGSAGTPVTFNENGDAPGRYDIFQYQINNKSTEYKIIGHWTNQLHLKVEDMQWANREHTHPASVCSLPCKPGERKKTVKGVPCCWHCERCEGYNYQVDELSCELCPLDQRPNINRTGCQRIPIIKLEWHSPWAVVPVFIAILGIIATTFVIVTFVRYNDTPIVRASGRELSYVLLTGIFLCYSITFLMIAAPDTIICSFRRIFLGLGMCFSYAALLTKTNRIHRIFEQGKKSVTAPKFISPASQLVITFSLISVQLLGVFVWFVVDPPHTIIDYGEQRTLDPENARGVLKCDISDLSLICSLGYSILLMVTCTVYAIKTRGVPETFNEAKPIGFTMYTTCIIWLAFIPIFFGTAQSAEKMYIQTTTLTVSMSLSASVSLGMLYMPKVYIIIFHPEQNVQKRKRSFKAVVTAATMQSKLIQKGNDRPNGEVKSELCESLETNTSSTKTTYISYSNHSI
`CCCCC(=O)NC1(C(F)(F)F)C(=O)N(Cc2ccco2)C(C)=C1C(=O)OC` (configuration not stated): the z-score was determined as 0.354.
Under `CCc1c(C#N)c(SCCC(=O)Nc2ccc(OC)cc2)nc2c1C(=O)CC(C)(C)C2` stands -0.459; under `O=C(CCNS(=O)(=O)c1cccc2nonc12)N1CCN(c2cccc(Cl)c2)CC1`, -0.246; under `NC(=O)c1cc(Cl)cn(-c2ccccc2)c1=O`, 0.589.
`O=c1oc2cc(O)ccc2c2c1CCCC2`: the z-score was determined as 0.0309.
`Cc1ccc(NC(=O)NCCc2ccc(S(N)(=O)=O)cc2)cc1` had a z-score of -0.0199.
Under `CC1CCCC(=C\c2ccccc2)/C1=N/O` (configuration not stated) stands -0.283; under `COc1cc(C)ccc1OCCOc1c(Cl)cc(Cl)cc1Cl`, -0.136; under `CCCCNc1nc(=S)[nH]c2cc(OC)c(OC)cc12`, 0.479.
On to `Cc1nn(C)c(C)c1CN(C)C(=O)CCCC(=O)O`, for which the z-score is -0.186.
Under `Cc1cc(=O)[nH]c2c1cnn2Cc1ccccc1` stands -0.424; under `Cc1ccc(C(=O)NNC(=O)CSc2nnc3c(n2)[nH]c2ccc(F)cc23)cc1`, -0.118; under `O=C(/C=C/c1ccc(Br)cc1)c1ccc(NC(=O)c2ccco2)cc1`, -0.379.
As for `CCOC(=O)Cn1nc(-c2ccccc2)c2ccccc2c1=O`, the figure is -0.698; as for `COc1cc([N+](=O)[O-])cc(/C=N/NC(=O)C(C)Nc2cccc3ccccc23)c1O` (configuration not stated), -0.626; as for `COc1ccc(OC)c(/C=N/NC(=O)CN2CCSCC2)c1`, 0.045.
With `CCCC(C)NC(=O)c1ccc(OCc2ccc(Cl)cc2)c(OC)c1` (configuration not stated), the z-score is -0.735.
`CCN(CC)S(=O)(=O)c1ccc(Cl)c(C(=O)Nc2cc(C)nn2-c2ccccc2)c1` showed a z-score of -1.22.
Under `Cc1ccc(C(=O)Nc2nc(-c3cccnc3)cs2)o1` stands -0.0733.
Under `c1ccc(N/N=C(\Cc2nc3ccccc3[nH]2)c2ccccc2)cc1` stands 0.00928.
Under `COc1cccc(NS(=O)(=O)c2ccc3[nH]cc(C(=O)NCCCOC(C)C)c(=O)c3c2)c1` stands -0.213; under `CCOc1cc(C(N)=O)cc(Br)c1OC`, -0.42; under `CC(C)C1N(c2ccccc2)C(N)=C(C#N)C1(C#N)C#N` (configuration not stated), -0.0335.
With `CCOc1cccc(C2C(C(=O)c3ccco3)=C(O)C(=O)N2Cc2ccncc2)c1` (configuration not stated), the z-score is -0.856.
In turn, `O=c1cc(CN2CCN(S(=O)(=O)c3ccc4c(c3)OCCO4)CC2)c2ccc(O)cc2o1` showed a z-score of 0.312.
For `CC1(C)Cc2c(c(N3CCCC3)nc3sc4c(N5CCN(CCO)CC5)ncnc4c23)CO1`, the z-score amounted to 0.293.
As for `COC(=O)c1sc(S(=O)(=O)N2CCC(C)CC2)c(C(=O)OC)c1C`, the figure is -0.262; as for `c1ccc(COc2nsnc2N2CCOCC2)cc1`, -0.329; as for `O=C(C1=C(O)C(=O)N(c2ncccn2)C1c1ccc(Cl)c(Cl)c1)c1ccco1` (configuration not stated), -0.896.
`CCOC(=O)CSc1nnc(-c2ccccc2NC(=O)c2ccccc2)o1` gave a z-score of -0.284.
`CSc1ccc(/C=N\NC(=O)CNc2ccc(C)cc2)cc1` displayed a z-score of -0.273.
As for `COC(=O)CSc1nnc(-c2cnccn2)n1C`, the figure is -0.612; as for `Cc1cc(C)cc(C(=O)N2CC(C)SC2=Nc2cccc(S(=O)(=O)N(C)C)c2)c1` (configuration not stated), -0.624; as for `Cc1ccnc(NS(=O)(=O)c2ccc(NC(=O)c3cncc(Br)c3)cc2)n1`, -0.0801.
As for `CC(C)(Oc1ccc(Cl)cc1)C(=O)OCC(=O)Nc1ncc(Cl)cc1Cl`, the figure is -0.203; as for `Cc1ccc(S(=O)(=O)CCC(=O)Nc2nc3c(s2)CCCC3)cc1`, 0.0967.
As for `Clc1ccc(CO/N=C2\CCCc3nonc32)cc1`, the figure is -0.224.
`CCOC(=O)C1CCN(C(=O)c2oc3ccc(S(=O)(=O)N4CCCCCC4)cc3c2C)CC1` returned a z-score of -1.51.
For the compound `Cc1cccc2cc(CN(Cc3nnnn3Cc3ccccc3)C3CCCC3)c(=O)[nH]c12`, the z-score is -0.368.
`O=S(=O)(NCc1ccco1)c1cnc(Cl)c(Br)c1`: the z-score was -0.0032.
As for `CC(=C/c1ccccc1)/C=N/n1c(-c2ccco2)n[nH]c1=S`, the figure is 2.16.
For `COC(=O)C(C(=O)OC)C(C(C)C)C(C(=O)OC)C(=O)OC`, the z-score is -0.152.
The compound `COC(CNC(=O)c1ccc(Cn2c(=S)[nH]c3cc4c(cc3c2=O)OCO4)cc1)OC` registered a z-score of -0.243.
`O=C(Nc1ccc2nsnc2c1)N1CCCCCC1` registered a z-score of -0.178.
As for `O=C(NCC1CCCO1)C1CC(=O)N(C2CCCC2)C1` (configuration not stated), the z-score was -0.08.
For the compound `CC1(C)CN2C(=S)N(c3ccccc3)C(c3ccccc3)N2C1` (configuration not stated), the z-score is -0.619.
As for `Cc1ccccc1N=C1SCC(=O)N1Cc1ccccc1`, the figure is -0.164; as for `CC(c1cccnc1)N(CCN(C)C)C(=O)Nc1ccc(Cl)c(Cl)c1` (configuration not stated), -0.706; as for `O=C(NC1CCCCC1)C(c1ccccc1F)N(Cc1ccco1)C(=O)Cn1nnc2ccccc21` (configuration not stated), -0.0968.
`CCOC(=O)c1ccccc1NC(=O)Cn1cnc2c(cnn2-c2ccc(F)cc2)c1=O` displayed a z-score of 1.16.
Compound `OCCSc1nc(-c2cccnc2)nc2ccccc12` displayed a z-score of -0.755.
As for `CCOC(=O)c1c(C)[nH]c(C(=O)OCC(=O)Nc2cc(Cl)ccc2OC)c1C`, the figure is 0.576; as for `O=C(c1ccc(Cl)c(S(=O)(=O)NCc2ccccc2)c1)N1CCN(c2ccccn2)CC1`, -0.259.
The compound `CCN(CC)CCCn1c(=S)[nH]c2ccccc2c1=O` displayed a z-score of 0.126.
As for `O=C(CCSCCC(=O)NCCN1CCOCC1)NCCN1CCOCC1`, the figure is 0.173; as for `CCN(CC)S(=O)(=O)c1ccc(C(=O)N2CCCCC2)cc1`, 0.109.
For `Cc1cccc2cc(CN(Cc3nnnn3Cc3ccco3)C3CCCC3)c3nnnn3c12`, the z-score is -0.979.
In turn, `O=C(CSc1ccc(Cl)cc1)Nn1cnnc1` came in with a z-score of -0.297.
`COc1cc2c(cc1OC)C1=C(C#N)CN(C3CCCCC3)CN1CC2` returned a z-score of 0.175.
Take `CCc1ccc2c(c1)c1nnc(NN)nc1n2CC`: the z-score is -0.278.
In the case of `COCCn1c(C)cc(C(=O)CSc2ncnc3sc4c(c23)CCC4)c1C`, the z-score amounted to 1.72.
As for `CCN(CC)C(=O)c1ccc(COc2ccccc2Br)o1`, the figure is -1.24; as for `C=CCn1c(SCC(=O)Nc2sc3c(c2C#N)CCC3)nnc1C1COc2ccccc2O1` (configuration not stated), 0.0194; as for `CCN(Cc1ccccc1)C(c1ccc(C)cc1)c1nnnn1C(C)(C)C` (configuration not stated), 0.051.
As for `CCc1ccccc1OCCCCN1CCCC1`, the figure is 1.44; as for `OC(CN1C2=NCCCN2c2ccccc21)c1ccc(Br)cc1` (configuration not stated), active: 3.3.
With `CCNC(=O)Cn1cc(C#N)c2ccccc21`, the z-score is -1.21.
Turning to `O=C(NCCN1CCOCC1)c1cc(Cl)ccc1[N+](=O)[O-]`, the z-score worked out at 5.55e-05.
Under `COc1cccc(C(=O)NCC(=O)OCC(=O)c2ccccc2)c1` stands -0.172; under `COc1cc(CNc2ccc3c(c2)CCC3)cc(OC)c1O`, 0.112; under `CC(/C=N/N1CCN(c2ccccc2)CC1)=C\c1ccco1`, 0.13.
As for `COc1ccc(C2Nc3ccccc3C(=O)N2c2ccc(C)cc2)cc1Cn1nnc2ccccc21` (configuration not stated), the figure is -0.299.
